Assay results published in the supplement of paper PMC4967469.
IC50 is the fitted dose that halves viability relative to control wells, and lower means more sensitive; a fit beyond the top or the lowest dose is shown as a bound at that dose. For AUC the same curve is integrated over the 256-fold range of doses and scaled to a fraction; values near 1 show little effect. An inferred top dose was derived from the fitted curves, not read from the paper.

Compound: Cc1ccc(-c2c(C(=O)CF)n(CCCO)c3ncnc(N)c23)cc1 [FMK]
Experiment: Viability of human cancer cell lines after 72 h of drug (GDSC screen)
Details: top dose inferred
Protocol: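 Human cancer cell lines in 384-well plates, medium with 10% serum, drug for 72 h over a 256-fold dose range (nine 2-fold or five 4-fold steps up to the top dose). Adherent lines were fixed and stained with the nucleic acid dye Syto60, suspension lines read with resazurin; signal relative to control wells, capped at 0 and 100%. One two-parameter sigmoid per drug and line, fitted in a mixed model over all curves with the slope shared within a line.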

AMO-1 (haematopoietic neoplasm, suspension, top dose 20 µM)
AUC: 0.978 | IC50: > 20 µM

ARH-77 (myeloma, suspension, top dose 20 µM)
AUC: 0.971 | IC50: > 20 µM

ASH-3 (thyroid, adherent, top dose 10.24 µM)
AUC: 0.988 | IC50: > 10.2 µM

ATN-1 (T-cell lymphoblastic leukaemia, suspension, top dose 20 µM)
AUC: 0.926 | IC50: > 20 µM

AU565 (breast, adherent, top dose 20 µM)
AUC: 0.978 | IC50: > 20 µM

AsPC-1 (pancreas, adherent, top dose 20 µM)
AUC: 0.877 | IC50: > 20 µM

BB30-HNC (head and neck, adherent, top dose 20 µM)
AUC: 0.982 | IC50: > 20 µM

BB49-HNC (head and neck, adherent, top dose 20 µM)
AUC: 0.834 | IC50: > 20 µM

BB65-RCC (kidney, adherent, top dose 20 µM)
AUC: 0.983 | IC50: > 20 µM

BC-1 (B-cell lymphoma, suspension, top dose 20 µM)
AUC: 0.988 | IC50: > 20 µM

BC-3 (B-cell lymphoma, suspension, top dose 20 µM)
AUC: 0.989 | IC50: > 20 µM

BE2-M17 (neuroblastoma, adherent, top dose 20 µM)
AUC: 0.984 | IC50: > 20 µM

BE-13 (lymphoblastic leukaemia, suspension, top dose 20 µM)
AUC: 0.96 | IC50: > 20 µM

BEN (non-small cell lung carcinoma, adherent, top dose 20 µM)
AUC: 0.984 | IC50: > 20 µM

BFTC-905 (bladder, adherent, top dose 20 µM)
AUC: 0.99 | IC50: > 20 µM

BFTC-909 (kidney, adherent, top dose 20 µM)
AUC: 0.988 | IC50: > 20 µM

BHY (head and neck, adherent, top dose 20 µM)
AUC: 0.964 | IC50: > 20 µM

BICR22 (head and neck, adherent, top dose 20 µM)
AUC: 0.98 | IC50: > 20 µM

BICR78 (head and neck, adherent, top dose 20 µM)
AUC: 0.982 | IC50: > 20 µM

BL-41 (Burkitt lymphoma, suspension, top dose 20 µM)
AUC: 0.984 | IC50: > 20 µM

BT-20 (breast, adherent, top dose 20 µM)
AUC: 0.972 | IC50: > 20 µM

BT-474 (breast, adherent, top dose 20 µM)
AUC: 0.986 | IC50: > 20 µM

BT-483 (breast, adherent, top dose 20 µM)
AUC: 0.977 | IC50: > 20 µM

BV-173 (chronic myeloid leukaemia, suspension, top dose 20 µM)
AUC: 0.967 | IC50: > 20 µM

Becker (glioma, adherent, top dose 20 µM)
AUC: 0.977 | IC50: > 20 µM

BxPC-3 (pancreas, adherent, top dose 20 µM)
AUC: 0.983 | IC50: > 20 µM

C2BBe1 (large intestine, adherent, top dose 20 µM)
AUC: 0.981 | IC50: > 20 µM

C3A (liver, adherent, top dose 20 µM)
AUC: 0.988 | IC50: > 20 µM

C32 (melanoma, adherent, top dose 20 µM)
AUC: 0.987 | IC50: > 20 µM

C-4-I (cervix, adherent, top dose 20 µM)
AUC: 0.986 | IC50: > 20 µM

C-33-A (cervix, adherent, top dose 20 µM)
AUC: 0.977 | IC50: > 20 µM

CA46 (Burkitt lymphoma, suspension, top dose 20 µM)
AUC: 0.953 | IC50: > 20 µM

CAKI-1 (kidney, adherent, top dose 20 µM)
AUC: 0.94 | IC50: > 20 µM

CAL-12T (non-small cell lung carcinoma, adherent, top dose 20 µM)
AUC: 0.975 | IC50: > 20 µM

CAL-27 (head and neck, adherent, top dose 20 µM)
AUC: 0.973 | IC50: > 20 µM

CAL-33 (head and neck, adherent, top dose 20 µM)
AUC: 0.973 | IC50: > 20 µM

CAL-39 (cervix, adherent, top dose 20 µM)
AUC: 0.985 | IC50: > 20 µM

CAL-51 (breast, adherent, top dose 20 µM)
AUC: 0.988 | IC50: > 20 µM

CAL-54 (kidney, adherent, top dose 20 µM)
AUC: 0.985 | IC50: > 20 µM

CAL-62 (thyroid, adherent, top dose 20 µM)
AUC: 0.988 | IC50: > 20 µM

CAL-72 (osteosarcoma, adherent, top dose 20 µM)
AUC: 0.983 | IC50: > 20 µM

CAL-78 (chondrosarcoma, adherent, top dose 20 µM)
AUC: 0.986 | IC50: > 20 µM

CAL-85-1 (breast, adherent, top dose 20 µM)
AUC: 0.962 | IC50: > 20 µM

CAL-120 (breast, adherent, top dose 20 µM)
AUC: 0.966 | IC50: > 20 µM

CAL-148 (breast, suspension, top dose 20 µM)
AUC: 0.99 | IC50: > 20 µM

CAMA-1 (breast, adherent, top dose 20 µM)
AUC: 0.98 | IC50: > 20 µM

CAPAN-1 (pancreas, adherent, top dose 20 µM)
AUC: 0.968 | IC50: > 20 µM

CAS-1 (glioma, adherent, top dose 20 µM)
AUC: 0.979 | IC50: > 20 µM

CCF-STTG1 (glioma, adherent, top dose 20 µM)
AUC: 0.988 | IC50: > 20 µM

CCK-81 (large intestine, adherent, top dose 20 µM)
AUC: 0.928 | IC50: > 20 µM

CCRF-CEM (lymphoblastic leukaemia, suspension, top dose 20 µM)
AUC: 0.981 | IC50: > 20 µM

CESS (acute myeloid leukaemia, suspension, top dose 20 µM)
AUC: 0.973 | IC50: > 20 µM

CFPAC-1 (pancreas, adherent, top dose 10.24 µM)
AUC: 0.895 | IC50: > 10.2 µM

CHL-1 (melanoma, adherent, top dose 20 µM)
AUC: 0.986 | IC50: > 20 µM

CHP-212 (neuroblastoma, adherent, top dose 20 µM)
AUC: 0.905 | IC50: > 20 µM

CHSA0011 (chondrosarcoma, adherent, top dose 20 µM)
AUC: 0.973 | IC50: > 20 µM

CHSA0108 (chondrosarcoma, adherent, top dose 20 µM)
AUC: 0.977 | IC50: > 20 µM

CMK (acute myeloid leukaemia, suspension, top dose 20 µM)
AUC: 0.952 | IC50: > 20 µM

COLO-205 (large intestine, suspension, top dose 20 µM)
AUC: 0.988 | IC50: > 20 µM

COLO-320-HSR (large intestine, suspension, top dose 20 µM)
AUC: 0.99 | IC50: > 20 µM

COLO-668 (small cell lung carcinoma, adherent, top dose 20 µM)
AUC: 0.941 | IC50: > 20 µM

COLO-678 (large intestine, semi-adherent, top dose 20 µM)
AUC: 0.963 | IC50: > 20 µM

COLO-680N (oesophagus, adherent, top dose 20 µM)
AUC: 0.957 | IC50: > 20 µM

COLO-684 (endometrium, suspension, top dose 20 µM)
AUC: 0.976 | IC50: > 20 µM

COLO-783 (melanoma, adherent, top dose 20 µM)
AUC: 0.981 | IC50: > 20 µM

COLO-792 (melanoma, adherent, top dose 20 µM)
AUC: 0.974 | IC50: > 20 µM

COLO-800 (melanoma, adherent, top dose 20 µM)
AUC: 0.979 | IC50: > 20 µM

COLO-824 (breast, adherent, top dose 20 µM)
AUC: 0.986 | IC50: > 20 µM

COR-L23 (large cell lung carcinoma, adherent, top dose 20 µM)
AUC: 0.968 | IC50: > 20 µM

COR-L88 (small cell lung carcinoma, adherent, top dose 20 µM)
AUC: 0.983 | IC50: > 20 µM

COR-L95 (small cell lung carcinoma, adherent, top dose 20 µM)
AUC: 0.972 | IC50: > 20 µM

COR-L105 (lung adenocarcinoma, adherent, top dose 20 µM)
AUC: 0.934 | IC50: > 20 µM

COR-L279 (small cell lung carcinoma, suspension, top dose 20 µM)
AUC: 0.99 | IC50: > 20 µM

CP50-MEL-B (melanoma, adherent, top dose 20 µM)
AUC: 0.986 | IC50: > 20 µM

CP66-MEL (melanoma, adherent, top dose 20 µM)
AUC: 0.983 | IC50: > 20 µM

CPC-N (small cell lung carcinoma, suspension, top dose 20 µM)
AUC: 0.985 | IC50: > 20 µM

CS1 (bone, adherent, top dose 20 µM)
AUC: 0.966 | IC50: > 20 µM

CTB-1 (B-cell lymphoma, suspension, top dose 20 µM)
AUC: 0.979 | IC50: > 20 µM

CTV-1 (acute myeloid leukaemia, suspension, top dose 20 µM)
AUC: 0.654 | IC50: 3.03 µM

CW-2 (large intestine, adherent, top dose 20 µM)
AUC: 0.981 | IC50: > 20 µM

Ca9-22 (head and neck, adherent, top dose 20 µM)
AUC: 0.973 | IC50: > 20 µM
